Z-score data for 67 molecules are collected here from PubChem BioAssay AID488969 (Vanderbilt High Throughput Screening Facility, 2010).

Whole data set: some 110,000 compounds, median “z-score” near -0.1, cut for the highest 2% near 2. Some of the results follow. The source made the active and inactive calls.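 Rule for the calls: active = z-score in the third read window above 3 or below -3; inactive = the rest.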

In the assay the target is Metabotropic glutamate receptor 8 (Rattus norvegicus) (UniProt P70579). The assay can be described thus: mGluR8 Gi/Go-coupled signaling modulation – cell-based, rat, thallium flux, HTS, primary screen (AID 488969). Particulars: HEK293 rat mGluR8, GIRK (G protein-gated inwardly rectifying potassium channel) thallium flux, FluoZin2; at 10 µM; stronger effect = higher value; submaximal glutamate (EC20) added with thallium.
Sequence of UniProt P70579 (P70579 whole entry, looked up): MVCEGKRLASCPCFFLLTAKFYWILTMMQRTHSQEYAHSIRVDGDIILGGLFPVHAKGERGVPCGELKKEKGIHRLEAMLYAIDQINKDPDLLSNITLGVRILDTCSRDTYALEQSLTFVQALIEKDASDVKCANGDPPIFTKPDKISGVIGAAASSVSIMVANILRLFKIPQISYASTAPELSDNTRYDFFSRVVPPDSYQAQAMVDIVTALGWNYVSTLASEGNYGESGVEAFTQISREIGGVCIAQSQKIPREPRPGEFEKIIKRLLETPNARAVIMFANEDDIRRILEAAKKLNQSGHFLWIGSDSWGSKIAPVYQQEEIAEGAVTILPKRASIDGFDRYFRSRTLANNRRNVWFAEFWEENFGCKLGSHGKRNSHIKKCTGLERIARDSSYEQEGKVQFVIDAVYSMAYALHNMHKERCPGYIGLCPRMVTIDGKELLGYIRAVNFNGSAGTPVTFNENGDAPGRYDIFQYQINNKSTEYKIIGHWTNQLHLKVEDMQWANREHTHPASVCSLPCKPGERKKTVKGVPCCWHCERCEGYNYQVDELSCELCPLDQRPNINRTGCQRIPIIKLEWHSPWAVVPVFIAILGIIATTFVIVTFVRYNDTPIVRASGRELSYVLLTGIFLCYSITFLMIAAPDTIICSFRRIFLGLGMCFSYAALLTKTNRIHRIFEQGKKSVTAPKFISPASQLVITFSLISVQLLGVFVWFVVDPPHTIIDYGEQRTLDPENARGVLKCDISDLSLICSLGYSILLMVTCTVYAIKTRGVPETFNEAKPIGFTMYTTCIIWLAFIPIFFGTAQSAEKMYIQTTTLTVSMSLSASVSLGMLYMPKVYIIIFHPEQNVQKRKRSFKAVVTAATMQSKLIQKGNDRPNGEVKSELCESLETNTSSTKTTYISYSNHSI
With `CCCCOC(=O)c1ccc(N2C(=O)CC(N3CCN(C/C=C/c4ccccc4)CC3)C2=O)cc1` (configuration not stated), the z-score was 0.587.

`COc1ccc(N2CCN(C(=O)CCNS(=O)(=O)c3ccc(Br)s3)CC2)cc1`: the z-score was -0.283.

Take `CCOc1ccccc1OCCCOc1ccc(C)cc1Cl`: the z-score was -0.147.

Consider `CCOC(=O)C1=C(CC)Nc2ccccc2N=C1NC(=O)c1ccc(S(=O)(=O)N(C)C)cc1`, for which the z-score is active: -3.65.

In the case of `CS(=O)(=O)c1ccc2nc(NC(=O)c3cccs3)sc2c1`, the z-score was determined as 0.482.

With `NC(=O)C1CCN(C2CC(=O)N(c3cccc(F)c3)C2=O)CC1` (configuration not stated), the z-score worked out at 0.0654.

The molecule `CCOC(=O)C1CCN(C(=O)CC(NS(=O)(=O)c2ccc(OC)cc2)C(C)C)CC1` (configuration not stated) returned a z-score of -1.41.

The molecule `CC(C)C(=O)NCCc1nc2ccccc2n1CCOc1ccccc1` came in with a z-score of -0.149.

`COC(=O)C1=C(C(=O)OC)SC(=C2C(=S)C(C)(C)N(C(=O)C(C)C)c3ccccc32)S1` returned a z-score of 0.293.

Molecule `CCC(C)NC(=O)C1c2ccccc2C(=O)N1Cc1cc(OC)ccc1OC` (configuration not stated) showed a z-score of -0.88.

For the molecule `O=C(CN(Cc1ccccc1)S(=O)(=O)c1ccccc1)NC1CC1`, the z-score was determined as 0.0708.

On to `COc1cc(OC)cc(C(=O)Nn2cc(C(=O)N3CCN(C)CC3)c3ccccc3c2=O)c1`, for which the z-score was 0.52.

`Cc1cc(C)c(C(=O)/C=C/C=C/c2ccccc2)c(=O)[nH]1`: the z-score was -0.044.

For the molecule `COc1cccc2cc(C(=O)Nc3cccnc3N3CCOCC3)c(=O)oc12`, the z-score was -0.322.

The molecule `Nc1nn(S(=O)(=O)c2cccc3nsnc23)cc1-c1ccc(Br)cc1` returned a z-score of -0.429.

In the case of `CSc1ccccc1NC(=O)CN(C)CC(=O)Nc1cc(C)ccc1C`, the z-score was -0.299.

`O=C(Nc1nc(-c2ccco2)cs1)c1ccccc1`: the z-score is 0.0664.

In the case of `O=C1c2ccccc2C(=O)N1c1nc2nccc(-c3ccccc3)n2n1`, the z-score amounted to 0.406.

On to `Cc1ccc(S(=O)(=O)C2(C(=O)N(C)C3CCCCC3)CC2)cc1`, for which the z-score was -0.148.

For `Brc1ccc(-c2cnc3n2CCCC3)cc1`, the z-score was 0.0393.

`C=CCOc1ccc(/C=N/NC(=O)C(C)Sc2ccccn2)cc1OCC` (configuration not stated) returned a z-score of -0.807.

Turning to `COc1ccc(CCNC(=O)Cn2nnc(-c3ccccc3F)n2)cc1OC`, the z-score was found to be 0.148.

Turning to `O=C(O)CC(c1cccc(Cl)c1)n1cccc1` (configuration not stated), the z-score is -0.123.

In turn, `CCCCN(CC)CCNC(=O)CN(C)S(=O)(=O)c1ccc2c(c1)c(=O)n(C)c(=O)n2C` gave a z-score of 0.104.

`COc1ccc(C(=O)NCc2cn3cccc(C)c3n2)cc1OC` had a z-score of 0.16.

In the case of `CCN(CC)S(=O)(=O)c1ccc(C)c(NC(=O)/C=C/c2cccs2)c1`, the z-score was -0.507.

In turn, `C/C(=C1/SC(N2CCOCC2)=NC1=O)c1ccc(Br)cc1` registered a z-score of 0.0234.

The molecule `CC(=O)Oc1c(S(=O)(=O)c2ccc(C)cc2)c(C)nn1-c1ccccc1` came in with a z-score of 0.33.

In turn, `CCOC(=O)Cc1csc(NC(=O)c2ccoc2C)n1` showed a z-score of -0.104.

As for `COc1ccc(Nc2nc(NCc3ccco3)nc(N/N=C/c3ccc(O)cc3)n2)cc1`, the z-score was 0.129.

In the case of `O=C(NCCN1CCOCC1)c1ccccc1[N+](=O)[O-]`, the z-score is 0.69.

Turning to `N#Cc1cc2ccc(N3CCOCC3)cc2cc1C#N`, the z-score was 0.856.

`COc1ccc(OC)c2[nH]c(=O)c(CCNC(=O)c3ccc(Br)o3)cc12` gave a z-score of -0.34.

Turning to `COC(=O)c1ccccc1COn1c(=O)c[n+]([O-])c2ccccc21`, the z-score came out at 0.644.

`COC(=O)c1[nH]c2ccc(C)cc2c1NC(=O)CN1CCCc2ccccc21`: the z-score was -0.0122.

`CON(c1nc(N(C)C)nc(N(C)C)n1)S(=O)(=O)c1ccccc1Cl`: the z-score is -0.678.

As to `CC1(C(=O)OCC(=O)N2c3ccccc3Sc3ccccc32)CC1(Cl)Cl` (configuration not stated), the z-score was -0.219.

As to `Cn1cc([N+](=O)[O-])c(C(=O)Nc2ccc3nc(-c4ccccc4)[nH]c3c2)n1`, the z-score was -0.514.

On to `COc1ccccc1C(=O)N/C(=C\c1ccc(Br)cc1)C(=O)NCC(=O)O`, for which the z-score is -0.086.

Regarding `COc1ccc2cc(/C(C)=N/NC(=O)c3cc(-c4cccnc4)nc4ccccc34)ccc2c1`, the z-score was -0.25.

`CCOC(=O)C1=C(c2ccccc2)N=C2SCC(=O)N2C1c1ccc(OC)c(OC)c1` (configuration not stated): the z-score is -0.362.

`OC1CN=C2C=CC=CN2C1` (configuration not stated): the z-score was -0.452.

`C/C=C/Cn1c(Br)nc2c1c(=O)n(C)c(=O)n2C` gave a z-score of 1.47.

Molecule `CCN(CC)S(=O)(=O)c1cccc(S(=O)(=O)c2cccc(S(=O)(=O)N(CC)CC)c2)c1` displayed a z-score of 1.61.

The molecule `COc1ccc(C(=O)NCCC2=CCCCC2)cc1OC` had a z-score of -0.214.

Molecule `C=CCn1c(SCC(=O)Nc2c(C)n(C)n(-c3ccccc3)c2=O)nc2scc(-c3ccccc3)c2c1=O` came in with a z-score of -0.769.

`Cc1ccc(-n2c([O-])nc(-[n+]3ccccc3)c2C=O)cc1` yielded a z-score of -0.0804.

As to `CCCCOc1[nH]c2nc(-c3ccco3)n(Cc3ccco3)c(=N)c2c1C#N`, the z-score is -0.772.

Molecule `Clc1ccccc1-c1cc(COc2ccc3ccccc3c2)no1` had a z-score of 0.574.

`CCOC(=O)c1c(C)[nH]c(C(=O)N/N=C\c2ccccc2Cl)c1C` yielded a z-score of -0.0744.

`CCN(CC)C(=O)CSc1nc(N)c2c3c(sc2n1)CC(C)CC3` (configuration not stated) yielded a z-score of 0.425.

For the molecule `CCN(CC)S(=O)(=O)c1ccc(N2CCCCC2)c(NC(=O)/C=C/c2ccc(OC)c(OC)c2)c1`, the z-score was -0.574.

The molecule `Cc1cc(NS(=O)(=O)c2ccc(NC(=O)CCc3ccccc3)cc2)no1` yielded a z-score of -0.156.

As for `O=C1CC(c2nc3ccccc3[nH]2)CN1Cc1ccccc1` (configuration not stated), the z-score is -1.62.

The molecule `Cc1nc(-c2ccccc2)sc1C(=O)CSc1ccc(Cl)cc1` yielded a z-score of 0.134.

For `Cc1ccc2c(C(=O)CSc3ccccc3)c(C)[nH]c2c1`, the z-score is -0.175.

As to `CC1=CC(C)(C)N(C(=O)CSc2nnc(N)s2)c2c(C)cc(C)cc21`, the z-score amounted to 0.0243.

With `O=C(Nc1c(F)cccc1F)c1cnc(N2CCN(c3ccccn3)CC2)c2ccccc12`, the z-score was -1.38.

The molecule `CCOC(=O)c1cnc(SC)nc1Oc1cccc(NC(=O)c2ccc(C)cc2)c1` displayed a z-score of 0.206.

With `O=C(CNC(=S)NC(=O)c1cccc([N+](=O)[O-])c1)c1ccccc1`, the z-score was determined as 0.411.

Molecule `CC(=O)NC1=NN(C(C)=O)C(C)(c2ccc3ccccc3c2)S1` (configuration not stated) gave a z-score of -0.0871.

With `CCOc1ccc(NC(=O)CNC(=O)c2cn(-c3ccccc3OC)c(=O)c3ccccc23)cc1`, the z-score is -0.0758.

The molecule `Cc1cc(Nc2cccc([N+](=O)[O-])c2)n2c(nc3ccccc32)c1C#N` yielded a z-score of 0.0405.

With `CCOC(=O)C1CCCN(C(=O)Nc2ccccc2)C1` (configuration not stated), the z-score is -0.0608.

`COc1ccc(-c2nc(CNS(=O)(=O)c3ccc(OC)c(OC)c3)cs2)cc1` gave a z-score of -0.711.

`O=C(O)CN(c1ccccc1)C1SC(=O)NC1=O` (configuration not stated) yielded a z-score of -0.0565.

As for `COc1ccc(C2=C/C(=C/c3cccnc3)C(=O)O2)cc1OC`, the z-score is -0.178.
